Test results from paper PMC4336329 (PLoS ONE, 2015).
Out of some 310,000 compounds screened, about 2,200 (0.71%) showed an effect of 50% or more. The effect is printed as a negative number. Some of the results follow.

Molecular target: human ether-à-go-go-related gene (hERG) potassium channel (human, UniProt Q12809)
Experiment: primary screen, population patch clamp on CHO cells stably expressing hERG

Chain of human ether-à-go-go-related gene (hERG) potassium channel (Q12809 whole entry, looked up): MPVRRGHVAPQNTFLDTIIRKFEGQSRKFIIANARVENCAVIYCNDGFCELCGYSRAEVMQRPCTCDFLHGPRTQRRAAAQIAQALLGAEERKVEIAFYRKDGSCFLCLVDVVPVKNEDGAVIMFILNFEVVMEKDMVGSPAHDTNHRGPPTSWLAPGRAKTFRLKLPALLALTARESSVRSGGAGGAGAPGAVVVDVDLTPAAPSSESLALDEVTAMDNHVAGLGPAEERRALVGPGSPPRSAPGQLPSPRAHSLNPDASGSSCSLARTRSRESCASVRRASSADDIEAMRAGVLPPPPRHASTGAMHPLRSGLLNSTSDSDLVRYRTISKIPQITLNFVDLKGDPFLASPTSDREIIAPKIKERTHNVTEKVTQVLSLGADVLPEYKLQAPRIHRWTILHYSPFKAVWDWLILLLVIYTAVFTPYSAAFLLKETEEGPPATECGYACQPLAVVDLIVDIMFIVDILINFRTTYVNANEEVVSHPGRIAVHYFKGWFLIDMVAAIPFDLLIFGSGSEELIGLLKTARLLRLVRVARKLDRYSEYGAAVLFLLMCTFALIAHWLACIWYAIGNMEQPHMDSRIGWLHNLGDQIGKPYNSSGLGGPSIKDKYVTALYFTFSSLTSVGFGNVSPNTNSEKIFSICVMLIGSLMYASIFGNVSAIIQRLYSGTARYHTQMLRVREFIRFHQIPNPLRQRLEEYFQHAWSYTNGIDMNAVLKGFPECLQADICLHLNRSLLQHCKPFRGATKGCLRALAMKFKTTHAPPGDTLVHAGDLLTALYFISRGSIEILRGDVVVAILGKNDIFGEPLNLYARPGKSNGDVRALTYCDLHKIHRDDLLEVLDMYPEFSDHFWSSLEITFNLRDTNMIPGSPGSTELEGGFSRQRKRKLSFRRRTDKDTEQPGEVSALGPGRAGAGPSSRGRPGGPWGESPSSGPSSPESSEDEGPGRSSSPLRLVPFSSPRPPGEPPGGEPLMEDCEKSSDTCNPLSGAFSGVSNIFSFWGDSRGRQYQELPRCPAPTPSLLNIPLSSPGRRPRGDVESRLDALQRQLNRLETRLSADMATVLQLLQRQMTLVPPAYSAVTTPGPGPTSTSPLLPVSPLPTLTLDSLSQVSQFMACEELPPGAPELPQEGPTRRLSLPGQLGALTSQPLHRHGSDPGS

Structure (SMILES) | hERG current change (%, negative = inhibition) at 1uM
O=C(Nc1ccccc1Cl)c1cc[n+](Cc2ccc([N+](=O)[O-])cc2)cc1.[Br-] | 9.59%
CCOC(=O)C1CCN(C(=O)Cc2ccc(-c3ccccc3)cc2)CC1 | -3.96%
CCCCOC(=O)C1=C(C)NC2=C(C(=O)CCC2)C1c1cc(OC)ccc1OC (centres unmarked) | 5.13%
COc1ccc(CCNC(=O)C2CC(c3ccccc3C(F)(F)F)=NO2)cc1 (centres unmarked) | 13.3%
Cc1cc(C)c(NC(=O)CNC(=O)[C@@H]2CCCN2C(=O)c2cccs2)c(C)c1 | 10.8%
Cc1ccc(/C=C/C(=O)N2CC(=O)Nc3ccccc32)o1 | 7.37%
CC1=Nc2ccccc2N=C(NC(=O)CN2CCN(c3ccccc3)CC2)C1c1ccccc1 (centres unmarked) | 14.5%
Cn1c(N)c(S(=O)(=O)NCc2ccccc2)c(=O)n(C)c1=O | 11.4%
Cc1ccc(NC(=O)COC(=O)CNC(=O)c2cccc([N+](=O)[O-])c2)cc1S(=O)(=O)N1CCCCCC1 | -3.13%
CCOc1cc(NC(=O)c2cccs2)c(OCC)cc1NC(=O)CCC(=O)NCC1CCCO1 (centres unmarked) | 17.9%
O=C(c1ccco1)n1nc(-c2cccnc2)nc1NCc1ccco1 | 6.78%
CCOc1cc(CNCc2ccccn2)cc(Cl)c1OCC.Cl | 7.83%
COC(=O)c1ccccc1NC(=O)CNC(=O)c1ccc(OC)c(OC)c1 | 8.47%
Cc1nc(S(=O)(=O)N2CCOCC2)c(C#N)c(C)c1Cl | 10.9%
CCCCn1c(N)c(N(CCC(C)C)C(=O)C2CC(=O)N(CCc3ccc(OC)c(OC)c3)C2)c(=O)[nH]c1=O (centres unmarked) | 17.6%
NC(=O)c1ccc(-n2nnnc2SCC(=O)Nc2ccccc2F)cc1 | 9.62%
Cc1ccc(C(=O)N2C(=O)C(c3ccccc3)Oc3ccccc32)cc1 (centres unmarked) | 7.91%
CCc1nc2ccccc2n1CC(=O)Nc1cc(C)on1 | 6.48%
COc1cccc(NS(=O)(=O)c2ccc3c(c2)CC(=O)N3)c1 | 9.33%
O=C(C1CCN(S(=O)(=O)N2CCOCC2)CC1)N1CCc2ccccc21 | 14.9%
Cn1c(=O)c2[nH]c(CNc3ccc(C(=O)O)cc3)nc2n(C)c1=O | 3.56%
COc1ccc(-c2onc3ccc(Br)cc23)cc1 | 15.6%

Structure (SMILES) | hERG current change (%, negative = inhibition) at 1uM
O=C(NCCc1ccc(F)cc1)c1n[nH]c2ccccc12 | -0.0502%
CCc1noc(C)c1C(=O)Nc1ccccc1C(C)(C)C | 14%
CCN(CC)CCN1C(=O)C(=O)/C(=C(/O)c2ccc(OC(C)C)cc2)C1c1ccncc1 (centres unmarked) | 18.1%
CN=C1S/C(=C\c2cn(CC(=O)OC)c3ccccc23)C(=O)N1C | 5.75%
Cc1nnc(SCc2ccc([N+](=O)[O-])cc2)[nH]c1=O | 8.32%
CCCC1(CCC)NC(=O)N(CC(=O)Nc2ccccc2OC)C1=O | 15.6%
COc1ccc(CC(=O)NCC2CCCCC2)cc1OC | 1.41%
CCCCCCCCS(=O)c1sc2nc(C)cc(C)c2c1N (centres unmarked) | 1.85%
N#Cc1cc2c(nc1SCC(O)CS(=O)(=O)Cc1ccc(Cl)cc1)CCCC2 (centres unmarked) | 3.87%
CN(C)c1ccc(S(=O)(=O)NCC(=O)NCC2CCCCC2)cc1[N+](=O)[O-] | 11.7%
O=C(NNc1nc(-c2ccccc2)c2cc(Br)ccc2n1)c1ccc(S(=O)(=O)N2CCOCC2)cc1 | 8.33%
FC(F)(F)c1ccc2c(c1)ncn2C1CCN(Cc2nnnn2C2CCCCC2)CC1 | -10.5%
COc1ccc(CCNC(=O)Cn2cnc3ccccc3c2=O)cc1OC | 17%
COc1cc(NC(=O)CN2CCCCCC2)cc(OC)c1 | 13.5%
CCc1ccc(/C=C2\C(=N)N3N=C(CC(=O)N4CCCCC4)SC3=NC2=O)cc1 | 18.8%
O=C(Nc1ncc(Cc2ccc(C(F)(F)F)cc2)s1)c1ccc(-c2cccc([N+](=O)[O-])c2)o1 | 13.5%
c1ccc(CNCCc2c[nH]c3ccccc23)cc1 | 7.06%
COC(=O)c1c(C)[nH]c(C)c1C(=O)c1ccccc1Cc1ccccc1 | 18%
COc1ccc(-c2nnc(SCC(=O)NC(C)c3ccccc3)o2)cc1OC (centres unmarked) | 9.61%
COc1ccc2nc(SCc3cccnc3)c(C#N)cc2c1 | 6.28%
CCc1nnc(NC(=O)CSc2nnc(-c3ccoc3C)n2-c2cccc(C)c2)s1 | 9.21%
CN(CC(=O)Nc1ccc(OC(F)(F)F)cc1)C(=O)C1CCC1 | 11.4%
